We go through 112 molecules from PubChem BioAssay AID488969 (Vanderbilt High Throughput Screening Facility, 2010).

In all, about 110,000 compounds were measured (“z-score”: median about -0.1, highest 2% from about 2 on). The list shows a part of the results. The source made the active and inactive calls.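 The calls were made as follows: active = z-score in the third read window above 3 or below -3; inactive = the rest.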

The target of the assay is Metabotropic glutamate receptor 8 (Rattus norvegicus) (UniProt P70579). The experiment in a line: rat mGluR8 modulators via GIRK flux, primary screen, cell-based, thallium flux, HTS (AID 488969). Particulars: HEK293 rat mGluR8, GIRK (G protein-gated inwardly rectifying potassium channel) thallium flux, FluoZin2; at 10 µM; stronger effect = higher value; submaximal glutamate (EC20) added with thallium.
Chain of UniProt P70579 (P70579 whole entry, looked up): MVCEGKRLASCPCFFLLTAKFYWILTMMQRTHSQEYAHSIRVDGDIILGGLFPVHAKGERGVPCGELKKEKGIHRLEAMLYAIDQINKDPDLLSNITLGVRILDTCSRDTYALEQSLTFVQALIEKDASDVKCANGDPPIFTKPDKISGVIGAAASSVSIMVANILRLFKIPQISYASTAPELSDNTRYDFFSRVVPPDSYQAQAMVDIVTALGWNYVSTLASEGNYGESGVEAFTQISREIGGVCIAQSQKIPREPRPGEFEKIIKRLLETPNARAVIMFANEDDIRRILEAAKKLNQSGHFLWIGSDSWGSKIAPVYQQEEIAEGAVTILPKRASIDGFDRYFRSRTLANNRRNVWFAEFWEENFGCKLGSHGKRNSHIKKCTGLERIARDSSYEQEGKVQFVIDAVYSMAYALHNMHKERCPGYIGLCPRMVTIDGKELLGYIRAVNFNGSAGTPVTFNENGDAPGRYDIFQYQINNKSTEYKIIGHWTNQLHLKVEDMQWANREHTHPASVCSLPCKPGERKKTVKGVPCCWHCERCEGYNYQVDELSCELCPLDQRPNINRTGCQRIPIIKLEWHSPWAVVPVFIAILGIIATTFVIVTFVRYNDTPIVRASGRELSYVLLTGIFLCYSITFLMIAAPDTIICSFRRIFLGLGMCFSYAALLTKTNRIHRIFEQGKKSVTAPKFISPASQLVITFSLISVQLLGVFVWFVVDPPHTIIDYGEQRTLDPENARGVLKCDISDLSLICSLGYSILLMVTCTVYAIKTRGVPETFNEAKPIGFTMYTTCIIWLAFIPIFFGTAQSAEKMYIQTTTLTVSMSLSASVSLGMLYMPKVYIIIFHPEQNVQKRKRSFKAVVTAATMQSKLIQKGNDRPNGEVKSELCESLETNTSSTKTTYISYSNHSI
As for `CCCOc1ccc(C(=O)c2nc3c(n2O)CCCC3)cc1`, the z-score is 0.0627.
The result for `Cc1cccc(NC(=O)c2sccc2-n2cccc2)c1C` reads -0.81; that for `O=C(CSc1cccs1)Nc1cccc2ccccc12`, -0.442; that for `Cc1cc(C)n(-c2cccc3cccnc23)n1`, -0.125.
The value for `COc1ccc(C(=O)N(CC(=O)NC(C)(C)C)c2ccc3c(c2)OCCO3)cc1OC` was -0.943; that for `CC(=O)c1cccc(NC(=O)CCOc2ccccc2)c1` was 0.782.
The value for `COC(=O)c1cc(=O)nc2sc3cc(OC)ccc3n12` was 0.0761.
Turning to `CCOc1ccccc1N1C(=O)CC(Nc2ccc(N3CCOCC3)cc2)C1=O` (configuration not stated), the z-score was -0.121.
The value for `COC(=O)c1cc(-c2ccc(Br)cc2)on1` was -1.67.
The value for `O=C(CCCOc1ccc(Cl)cc1)N1CCOCC1` was 0.299; that for `CCC(=O)Nc1ccc2nc(SCC(=O)N3CCCC3)sc2c1` was -0.21.
The result for `CCC(CC)C(=O)OCC(=O)Nc1ccc(S(=O)(=O)N2CCOCC2)cc1OC` reads -0.163; that for `Cc1nn(-c2ccccc2)c(Cl)c1CN(C(=O)CCl)c1ccc(Cl)cc1`, -0.928.
As for `Cc1[nH]c2ccccc2c1C(c1ccccn1)N1CCC(C(N)=O)CC1` (configuration not stated), the z-score is -0.157.
The result for `CCOC(=O)c1cc(-c2ccccc2)sc1NC(=O)CN1C(=O)c2ccccc2C1=O` reads -0.0954; that for `CCCC(=O)Nc1ccc(C(=O)N/N=C2\CC(=O)CC(C)(C)C2)cc1`, -0.113.
The value for `CC(C)(C)c1ccc(C(=O)Nc2nonc2-c2nc3ccccc3[nH]2)cc1` was 0.212.
The value for `COc1ccc(C(=O)N/N=C/c2cccc3cccnc23)cc1` was -0.417.
Regarding `CCOc1ccc(C(=O)NCC(c2cccs2)N(C)C)cc1OCC` (configuration not stated), the z-score is -0.293.
The value for `COc1ccc(-c2n[nH]c(=S)n2CC(C)C)cc1` was -0.429; that for `COC(=O)c1ccc(C)c(NC(=O)CCSc2ccccc2)c1` was -0.0823.
For the molecule `Cn1nc([N+](=O)[O-])nc1Sc1ccc(Cl)cc1`, the z-score was -0.174.
The result for `Cc1ccc(-n2c(C)n[nH]c2=S)cc1` reads 0.115; that for `Cn1nc(-c2ccccc2)c(-c2nc(-c3cccc(Cl)c3)no2)c1Cl`, -0.289; that for `C=CCN1C(=O)C(Cc2ccc(OC)cc2)S/C1=N/N=C/c1ccco1` (configuration not stated), -0.0726.
On to `CCCc1cc(N2CCCC(C(=O)Nc3cc(Cl)ccc3OC)C2)n2ncnc2n1` (configuration not stated), for which the z-score was -0.857.
The value for `O=C(c1ccc(F)cc1)N1CCN(C2CC3CCC2C3)CC1` (configuration not stated) was 0.268; that for `C=C(C)CSc1nnc(-c2ccccc2)n1N` was 0.148; that for `Cn1/c(=N/N=C/c2ccc(Cl)c([N+](=O)[O-])c2)sc2ccccc21` was 0.0387.
For the molecule `O=C(CSc1nnc(-c2ccc3c(c2)OCCO3)o1)N1CCCC1`, the z-score is 1.13.
Take `COc1ccc(C(=O)NCc2nnc(SCC(=O)N3CCc4ccccc43)n2Cc2ccccc2)cc1`: the z-score was -0.0589.
The value for `COc1cccc(/C=N/NC(=O)c2ccc(OCc3cccc(Br)c3)cc2)c1` was 0.138; that for `COc1ccccc1-c1noc(-c2ccccc2C(=O)Nc2ccccc2)n1` was -0.572; that for `CN(c1ccc(C(=O)Nc2cccnc2)cc1)S(C)(=O)=O` was 0.0155.
The result for `COc1ccccc1Oc1ccc(S(=O)(=O)N2CCOCC2)cc1S(=O)(=O)N1CCOCC1` reads -0.453.
The result for `C=C(C)c1cccc(C(C)(C)NC(=O)N(Cc2ccccc2)Cc2ccco2)c1` reads -0.101; that for `O=C1C(NS(=O)(=O)c2cccs2)=C(N2CCN(c3ccccc3)CC2)C(=O)c2ccccc21`, 0.0931; that for `COc1ccc(OC)c(NC(=O)c2cc(-c3cc(Cl)ccc3O)n[nH]2)c1`, 0.806.
`Cc1ccccc1-n1nc(C)c2cc(C(=O)N3CCN(S(=O)(=O)c4ccc(Cl)cc4)CC3)sc21`: the z-score was -0.194.
The value for `COC(=O)N/N=C/c1c[nH]c2ccccc12` was -0.591.
The value for `COc1ccc(CCNC(=O)COc2ccc(S(=O)(=O)N3CCOCC3)cc2)cc1OC` was 0.119.
The result for `c1cnc(SCCOc2ccc3c(c2)CCC3)nc1` reads 0.191.
For `CN(CCO)c1c2c(nc3cc(-c4cccc(F)c4)nn13)CCCC2`, the z-score is -0.479.
The value for `Cc1ccc(S(=O)(=O)N2CCN(C(=O)CN3CCCCC3)C2)cc1` was -0.162; that for `c1ccc2c(c1)ncn2CCCCOc1ccc2c(c1)CCC2` was -0.463; that for `Cc1cc(-c2ccccc2)nc2cc(C(=O)N(Cc3ccccc3)Cc3ccccc3)nn12` was 0.525.
The result for `CCCCN1C(=O)CC(C(=O)O)C1c1ccc(OC)cc1` (configuration not stated) reads -0.572; that for `O=C(NC(=S)Nc1ccc(S(=O)(=O)NC2CCCCC2)cc1)c1cccs1`, 0.16; that for `CCOC(=O)c1sc(NC(=O)Nc2ccc(F)cc2)nc1C`, -0.238.
The result for `CC(C)Oc1cccc(-c2cc(C(=O)N3CCN(c4ncccn4)CC3)c3ccccc3n2)c1` reads -0.273; that for `CCCCC(=O)Nc1ccc(C(=O)Nc2ccc(S(=O)(=O)N3CCCC3)cc2)cc1`, -0.419; that for `Cc1ccc(S(=O)(=O)N2CCC[C@H]2C(=O)OC(C)C(=O)Nc2ncc(Cl)cc2Cl)cc1` (some centres not stated), 0.0703.
For the molecule `O=C(N/N=C/CCc1ccccc1)c1ccc(CN2c3cccc4cccc(c34)S2(=O)=O)cc1`, the z-score was -0.0365.
`CCC(C(=O)OCC(=O)Nc1ccc(Cl)c(S(=O)(=O)N(C)C)c1)c1ccccc1` (configuration not stated): the z-score is -2.23.
The result for `CCC1CCCCN1C/C=C/c1ccccc1[N+](=O)[O-]` (configuration not stated) reads 0.136.
The value for `Cc1ccccc1C(=O)N=c1c(C#N)cc2c(=O)n3cccc(C)c3nc2n1Cc1ccco1` was -0.244; that for `O=C(c1cncc(Br)c1)N1CCN(c2ccc(N3CCOCC3)nn2)CC1` was 0.0127; that for `CCCCC(=O)NC(N1CCCCC1)C(Cl)(Cl)Cl` (configuration not stated) was -0.392.
The value for `Cc1ccc(O)c(NC(=O)c2cccc(NC(=O)c3ccco3)c2)c1` was -0.336; that for `COc1cc(CNc2ccc(N3CCCC3)cc2)ccc1OCc1ccccc1` was active: 3.82; that for `CC(C)CC(=O)Nc1cc2nn(-c3ccccc3)nc2cc1Cl` was 0.0416.
In the case of `CCOC(=O)c1c(-c2ccccc2)oc2cc(CN(C)C)c(O)c(CN(C)C)c12`, the z-score is 0.295.
The value for `Cn1c(-c2ccc(Br)o2)nc2cc(Br)ccc21` was -0.104; that for `COc1ccc(CCNc2nc(-c3cccnc3)cs2)cc1OC` was -0.451; that for `CC(Sc1nc(-c2ccc(F)cc2)cs1)C(=O)Nc1ccc(Cl)cn1` (configuration not stated) was -0.19.
The result for `CCOC(=O)c1c(C)nc2sc(C(=O)Nc3ccc(C(C)=O)cc3)c(N)c2c1-c1ccc(OC)cc1` reads -0.136.
Regarding `CCC(NC(=O)Nc1ncccc1C)(C(F)(F)F)C(F)(F)F`, the z-score amounted to 0.0143.
The result for `Cn1cccc1C(=O)NC(=O)COC(=O)c1ccccc1Sc1ccccc1C#N` reads 0.0541; that for `Cc1cc(C)nc(SCNC(=O)c2ccccc2)n1`, 0.44.
The result for `CNC(=S)N/N=C/c1cn(CCOc2ccccc2OC)c2ccccc12` reads -0.1; that for `CCOC(=O)C(Cc1ccccc1)C(=O)Nc1ccc(N(CC)CC)cc1` (configuration not stated), 0.385.
`O=C(Nc1nc2ccc(S(=O)(=O)N3CCCCC3)cc2s1)c1cccnc1`: the z-score is -0.427.
Consider `O=C(CSc1nnc(-c2cccnc2)n1-c1ccc(SC(F)F)cc1)N1CCCc2ccccc21`, for which the z-score amounted to 0.0656.
Take `CC(CNC(=O)C(C)C)NC(=O)C(C)C` (configuration not stated): the z-score is -0.447.
The value for `Cc1cccc(OCc2nc3c4c(ncn3n2)-c2ccccc2CC42CCCC2)c1` was -0.328; that for `COC(=O)Cn1nc(-c2ccccc2)c2ccccc21` was -0.352.
Regarding `CCc1nnc(NC(=O)CSc2nnc(-c3ccc(OC)cc3)n2C)s1`, the z-score was -0.389.
The result for `O=C(O)C1CC=CCC1C(=O)NCCc1ccccc1` (configuration not stated) reads -0.399; that for `CCOC(=O)c1c(C)[nH]c(C2=NNC(=Nc3cccc(Cl)c3)SC2)c1C`, -0.064; that for `NC1=C(c2ccc([N+](=O)[O-])cc2)C(=O)CO1`, -0.176.
In turn, `O=C(Nc1ccc2c(c1)Cc1ccccc1-2)c1ccc(Br)o1` registered a z-score of 0.178.
The result for `N#CCSc1nnc(COc2cccc3ccccc23)n1-c1ccccc1` reads -0.135.
As for `COc1ccc(N=CC2=C(O)c3ccccc3C2=O)cc1`, the z-score was -0.288.
The result for `O=C(CCC(=O)Nc1ccccc1Cl)NNC(=O)c1ccco1` reads 0.174.
The value for `COC(=O)CSc1nc(-c2cccs2)ccc1C#N` was -0.281.
Take `Cc1ccc(-c2nc(CS(=O)CC(=O)NCCN3CCCC3)c(C)o2)cc1` (configuration not stated): the z-score was -0.256.
The value for `Cn1c(SCC(=O)N2CCCc3ccccc32)nc2ccccc2c1=O` was -0.254.
The value for `O=c1oc2ccccc2c(Nc2ccc(O)cc2)c1[N+](=O)[O-]` was -0.0699.
The value for `COc1cc(-c2nnc(SCC(=O)Nc3cc(C)on3)n2C)cc(OC)c1O` was -1.05.
As to `COc1ccc(CCNC(=O)CN(C)S(=O)(=O)c2cccs2)cc1OC`, the z-score is -0.0674.
The value for `NS(=O)(=O)c1ccc(N2N=C(c3ccccc3)CC2c2cccc(F)c2)cc1` (configuration not stated) was 0.17; that for `CCN1C2=NCCCN2c2ccccc21` was 0.0152.
Consider `CCNc1sc(C(=O)c2cccs2)c(N)c1C#N`, for which the z-score was -0.708.
Molecule `Cc1cc(NS(=O)(=O)c2ccc(OCCNS(C)(=O)=O)cc2)no1` had a z-score of 0.204.
In turn, `C=CC(O)Cc1c(C)n[nH]c1C` (configuration not stated) yielded a z-score of 0.463.
On to `O=C(CNc1ccccc1)Nc1ccc(F)cc1`, for which the z-score was determined as 0.549.
The result for `CC1(C)Cc2c(C#N)c(N3CCOCC3)nc(-c3ccccc3)c2CO1` reads -0.569; that for `Cc1cccc(-c2c3c(=O)n(C)c(=O)n(C)c3cn2-c2ccccc2O)c1`, -0.0561.
The value for `CCCn1c2ccccc2c2nnc(SCC(=O)Nc3ncccn3)nc21` was -0.434; that for `CCOC(=O)N1CCN(c2c(NCC3CCCO3)c(=O)c2=O)CC1` (configuration not stated) was -0.352.
The result for `CC(C)NC(=S)NC(=O)c1ccc(Cl)cc1Cl` reads active: 13.8; that for `CCN(CC)C(=S)Sc1c(-c2ccccc2)c2cc(Cl)ccc2[nH]c1=O`, 0.274; that for `Cc1occc1C(=O)Nc1cc(=O)n(C)c(=O)n1C`, 0.662.
On to `CN1CCc2nc(SCCOc3ccccc3)c(C#N)cc2C1`, for which the z-score is -1.48.
`COc1cc([C@H]2[C@@H]3CCCC[C@]3(O)CCN2CC(=O)Nc2ccc(C)cc2C)ccc1O`: the z-score was -0.349.
On to `O=C(O)Cc1csc(NC(=O)c2ccco2)n1`, for which the z-score was 0.104.
The value for `O=C(/C=C/c1ccco1)Nc1cccc(-c2nc3ccccc3[nH]2)c1` was -0.353; that for `Cn1cc(Cl)c(C(=O)OCC(=O)Nc2nc(-c3ccc(Br)cc3)cs2)n1` was 0.00326; that for `CCOC(=O)C(CCCCOc1cccc(CC)c1)C(=O)OCC` was active: 3.18.
The result for `Cc1sc(N)nc1-c1cccs1` reads -0.368; that for `COc1ccccc1NC(=O)c1csc2c1CCCC2`, -0.326; that for `O=C(Cc1ccc(-n2c(=O)c3ccccc3n(Cc3ccc(F)cc3)c2=O)cc1)NCC1CCCO1` (configuration not stated), -0.318.
